# Recombinant human monoclonal antibodies (heavy:light variable regions). ELISA EC50 on the named antigen, from 10 µg/ml down; IC50 against spike pseudovirus on HT1080-ACE2 cells, 48 h; lower = stronger. Calls: IC50 above 1,000 ng/ml = non-neutralizing; EC50 above 1,000 ng/ml = non-binder.
# B1: C5170 (protein)
# chain 1: EVQLVESGGGLVKPGRSLRLSCSASGFTFGDFAMSWFRQTPGKGLEWLGFIRSKAFGGTTQYAASVKDRFSISRDDSKSIAYLQMNSLKSEDTAVYYCTRVIPCTSTDGPCYGYYFDYWGQGILVTVSS
# chain 2: EIVLTQSPATLSLSPGERATLSCRASQSVSTFLVWYQQKPGQAPRLLIYDASKRAPGIPARFSGSGSGTDFTLTISSLEPEDFAVYYCQQRSNWFSFGGGTKVEIK
# B2: C5171 (protein)
# chain 1: QVQLVESGGGVVPPGRSLRLSCAASGFTFRHYAMHWVRQAPGKGLEWVAGTSYDGEKTAYGDSVKGRCTISRDNPKNALYLQINSLRRDDTAVYYCAKVGGTYCSATSCFGGYLDYWGQGILVTVSS
# chain 2: DIQMTQSPSSLSASVGDRVTITCQASQDISNYLNWYQQKPGKAPKLLIYDASNLETGVPSRFSGSGSGTDFTFTISNLQPEDIATYYCQHYDNLPPFTFGPGTKVDIK
# B3: C5172 (protein)
# chain 1: EVQLVQSGSEVKKPGESLKISCKGSGYTFTYYWIAWVRQMPGKGLEWMGIIYPGDSDTKYSPSFQDQVTFSADRSISTAYLQWSSLRASDTAIYYCARSVSLLSGDVAVTGTEALDFWGQGTLVTVSS
# chain 2: EIVLTQSPGTLSLSPGERATLSCRASQSVDSHYLAWYQQKPGQAPRLLMFGASTRATGIPDRFSGSGSGTDFTLVISRLEPEDFAVYHCQYYGNSGGTFGQGTKLEIK
# B4: C5173 (protein)
# chain 1: QVQLVQSGSELKKPGASVKVSCKASGYTFTNYALHWVRQAPGQGLEWLGWINTDSGTPTYAQGFTGRFVFSLDTSVSMSYLQINSLKAEDTAVYFCAKTRCTGAFCYAHSYYYSMDVWGQGTTVTVSS
# chain 2: SYELTQPPSVAVAPGQTARITCGGDSIGSKSVHWYQQKPGQAPVLVVHDDTDRPSGIPERFSGSNSGNTATLTISRVEAGDEADFYCQVWDTSGVFGGGTKLTVL
# B5: C5174 (protein)
# chain 1: EVQLVESGGGLIQPGGSLRLSCAASGITVSSNYMTWVRQAPGKGLEWVALIYAGGSTFYADSVKGRFTISRDNSKNTLYLQMNSLRAEDSAVYYCARDLQYYGMDVWGQGTTVTVSS
# chain 2: DIQLTQSPSSLSASVGDRVTITCRASQGISNYLAWYQQKPGKAPKLLVYAASTLQSGVPSRFSGSGSGTDFTLTISSLQPEDFATYYCQQIDDYPLFGPGTKVDIK
# B6: C5175 (protein)
# chain 1: EVQLVESGGGLIQPGGSLRLSCAASGFIVSRNYMSWLRQAPGKGLEWVSVMYSGGSTFYADSVKGRFTISRDNSKNTLYLQMNSLRAEDTAVYYCARDYGDFYFDYWGQGTLVTVSS
# chain 2: EIVLTQSPATLSLSPGERATLSCGASEIVSSSHLAWYQQKPGLAPRLLIYDASSRAIGIPDRFSGSGSGTDFTLTISRLEPEDFAVYYCQQYAGSPRTFGQGTKLEIK
# B7: C5176 (protein)
# chain 1: EVQLVQSGAEVKKPGESLKISCKGSGYTFTTYWIGWVRQMPGKGLEWMGVIYPGDSDTRYDPSFQGQVTISADKSINTAYLQWSSLKASDTAMYYCAKLRGMALPAPPDYWGQGTLVTVSS
# chain 2: DIQMTQSPSSLSASVGDRVTITCQASQDISNYLDWYQQKPGKAPKVLIYEASNLEKGVPSRFSGSRSGTDFTFTISSLQPEDIATYYCLQYHNLPLTFGGGTKVEIK
# B8: C5177 (protein)
# chain 1: QVQLVQSGPEVKKPGTSVKVSCKASGFTFISSAVQWVRQARGQRLEWMGWIVVGTGHTNYAQSFQERVTITRDMSTSTAYMEVSSLRSEDTAVYYCAAGIHNGYFYAVDYWGQGTLVTVSS
# chain 2: DIQMTQSPSSLSASVGDRVTITCQASQDISDFLNWYQQIPGKAPKLLIYDASNLKTGVPSRFSGSGSGTDFTFTISSLQPEDIATYYCQQYDTLPYNFGQGTKLEIK
# B9: C5179 (protein)
# chain 1: QVQLVQSGPEVKKPGTSVKVSCKASGFTFSLSAVQWVRQARGQRLEWIGWSVPGRGNTKFAQKFQERVTITRDMSTSTAYMELSSLRSEDTAVYYCAAPHCNSTTCYDGFDIWGQGTMVTVSS
# chain 2: EIVLTQSPGTLSLSPGERATLSCRASQSVSSSYFAWYQQKPGQAPRLLIYGASSRATGIPDRFSGSGSGTDFTLTISSLEPEDFAVYYCQQYGRSEWTFGQGTKVEIK
# B10: C5180 (protein)
# chain 1: EVQLLESGGGLVQPGGSLRVSCAASGFTFSNYAMSWVRQTPGKGLEWVSTIIASSDNTYYADSVKGRFTISRDNSKNTLYLQMNSLRAEDTAVYYCAKDPVRHIVVVTPIWYFDLWGRGTLVTVSS
# chain 2: QSVLTQPPSVSGAPGQRVTISCTGSSTNIGAGYDVHWYQQLPGTAPKLLIYGDTNRPSGVPGRFSGSKSGTSASLAITGLQPEDEADYYCQSYDYNLSGSVFGGGTKLTVL
# B11: C5040 (protein)
# chain 1: EVQLLESGGGLVQPGGSLRLSCAASGFIFSNYAMNWVRQAPGKGLEWVSGISGSSSSRYYADSVKGRFTISRDNSKNTLYLQMNSLRAEDTAVYYCAKPGYPRSYSYDTSGYSPYYFDYWGQGTLVTVSS
# chain 2: DIQMTQSPSTLSASVEDRVTITCRASQSIGRWLAWYQHKPGKAPKLLIYDASSLESGVPSRFSGSGSGTEFTLTISGLQSDDFATYYCQHYNTYSGLPFGGGTKVEIK
# B12: C5183 (protein)
# chain 1: QVQLVQSGAEVKKPGSSVKVSCKASGDIFSNYDIIWVRQAPGQGLEWMGGIIPIFGTANYAQKFQGRVTITADRSTTTAYMELSSLKSEDTAVYYCARHCGSASCSWVYGMDVWGQGTTVTVSS
# chain 2: DIQLTQSPSSLSASVGDRVTISCRASQGISSALAWYQQKSGKAPKLLVYDASTLGSGVPSRFSGSGSGTDFILTISSLQPEDFATYYCQQFKSYPRLTFGGGTKVEIK
# B13: C5186 (protein)
# chain 1: QVQLVQSGAEVKKPGASVKVSCKASGYTFTNYYMHWVRQAPGQGLQWMGVIDPSGGSTTYAQKFQGRVIMTRDASTSTVYMAVSSLRSEDTAVYYCARVPYGSGQPPQDFFDYWGQGTLVTVSS
# chain 2: SYELTQPPSVSVAPGQTARIPCGGNDIGSKNVHWYQQKPGQAPFLVVYDDTDRPSGIPERFSGSNSGNTATLTISRVVAGDEADYYCQVWESSGDHWVFGGGTKLTVL
# B14: C5187 (protein)
# chain 1: QVQLVESGGAVVQPGRSLRLSCAASGFTFSSYGMHWVRQAPGKGLEWVAVIWLDGIKTYYVDSVKGRFTISRDNSKNTVYLQMNSLRAEDTAVYYCARHGSGNYYGYYFDWWGQGTLVTVSS
# chain 2: DIQMTQSPSSLSASVGDRVTITCRASQSVSDFLNWYQQTPGKAPKLLIYAASSLHSGVPSRFSGSGSGTDFTLTITSLHPEDFATYYCQQSYITPGTFGPGTKVDIK
# B15: C5188 (protein)
# chain 1: QVQLVQSGAEVKKPGSSVKVSCKASGGTFSNHAINWVRQAPGQGLEWMGGNIPIFKTAQYAQKFQGRITITADESTSTAYMELSSLKSDDTAVYFCARENSATIAFGEVIVIANYFDHWGQGTLVTVSS
# chain 2: DIQMTQSPSSLSASVGDRVTITCRASQSISRHLNWYQQKPGKAPSLLIYAASNLQSGVPSRFSGSASGTDFTLTISGLQPEDFATYYCQQSYTTFSFTFGPGTKVDIK
# Target: SARS-CoV-2 Omicron BA.1 spike pseudovirus
# Assay: pseudovirus neutralization IC50; higher = weaker neutralization
# Protocol: (§1)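 Single-round luciferase reporter pseudovirus mixed with antibody dilutions and put on HT1080-ACE2 clone 14 cells for 48 h; signal relative to no-antibody wells, four-parameter fit.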
row,Binder,pseudovirus neutralization IC50 [ng/mL]
1,B1,113
2,B2,> 1000
3,B3,414
4,B4,342
5,B5,43.4
6,B6,5.35
7,B7,> 1000
8,B8,2.65
9,B9,1.79
10,B10,> 1000
11,B11,> 1000
12,B12,4.74
13,B13,> 1000
14,B14,13.6
15,B15,> 1000

# Target: SARS-CoV-2 Omicron BA.4/5 spike pseudovirus
# Assay: as above
# Protocol: as §1
row,Binder,pseudovirus neutralization IC50 [ng/mL]
1,B1,> 1000
2,B2,> 1000
3,B3,707
4,B4,> 1000
5,B5,33.1
6,B6,254
7,B7,> 1000
8,B8,106
9,B9,> 1000
10,B10,> 1000
11,B11,> 1000
12,B12,3.86
13,B13,> 1000
14,B14,> 1000
15,B15,640

# Target: SARS-CoV-2 Wuhan-Hu-1 spike pseudovirus
# Assay: as above
# Protocol: as §1
row,Binder,pseudovirus neutralization IC50 [ng/mL]
1,B1,0.396
2,B2,> 1000
3,B3,> 1000
4,B4,582
5,B5,1.7
6,B6,4.06
7,B7,760
8,B8,2.35
9,B9,1.44
10,B10,> 1000
11,B11,122
12,B12,3.38
13,B13,797
14,B14,2.98
15,B15,877

# Target: SARS-CoV-2 Wuhan-Hu-1 spike receptor-binding domain
# Assay: ELISA binding EC50; higher = weaker binding; ELISA of recombinant human antibody on coated antigen, from 10 µg/ml in fourfold dilutions; four-parameter fit.
row,Binder,ELISA binding EC50 [ng/mL]
1,B1,3.07
2,B2,6.11
3,B3,8.19
4,B4,4.06
5,B5,2.76
6,B6,3.7
7,B7,5.58
8,B8,3.06
9,B9,2.77
10,B10,6.13
11,B11,18.2
12,B12,4.14
13,B13,4.13
14,B14,4.57
15,B15,4.29

# Source: the supplement of paper PMC10300432
